# Results from the supplement of paper PMC12217912.
# The list shows a part of the results. The full chains were built here from the parent and the listed change. Inactive controls read about 0.05.
# B1: TEV protease; numbered along this chain (parent)
# chain: MGESLFKGPRDYNPISSSICHLTNESDGHTTSLYGIGFGPFIITNKHLFRRNNGTLVVQSLHGVFKVKDTTTLQQHLVDGRDMIIIRMPKDFPPFPQKLKFREPQREERICLVTTNFQTKSMSSMVSDTSCTFPSGDGIFWKHWIQTKDGQCGSPLVSTRDGFIVGIHSASNFTNTNNYFTSVPKNFMELLTNQEAQQWVSGWRLNADSVLWGGHKVFMVKPEEPFQPVKEATQL
# Variants of: B1
# Experiment: raw area under fraction-flipped curve 0-4 h after induction (AUC4h, not background-subtracted), DNA-recorder readout of cleavage of the substrate (dimensionless); higher = more cleavage of the substrate by the protease variant
# Conditions: temperature: 34 °C; time window: 0-4 h after rhamnose induction
# Method: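 In vivo DNA recorder in E. coli TOP10(DE3) ΔrhaA at 34 °C. Each TEVp single-site mutant (parent TEVp 0) is paired with a single-site variant of the 7-mer TEVs (canonical ENLYFQ|S). The substrate sits between flexible linkers in a Bxb1-sfGFP-TEVs-SsrA fusion, so cleavage stabilises Bxb1 and speeds flipping of a recombination array, read by NGS. The value is the raw area under the fraction-flipped curve over 0-4 h after rhamnose induction (AUC4h), with ≥20 reads per time point. It is not background-subtracted; inactive controls average about 0.047.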
# 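Further: Bxb1 expression induced with 0.2% (w/v) L-rhamnose at OD600 near 0.5, cultures sampled hourly, flipped fraction per protease–substrate barcode pair counted by paired-end Illumina sequencing.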
Variant,area with substrate ENLAFQS,area with substrate ENLCFQS,area with substrate ENLDFQS,area with substrate ENLFFQS,area with substrate ENLHFQS,area with substrate ENLIFQS,area with substrate ENLKFQS,area with substrate ENLNFQS,area with substrate ENLPFQS,area with substrate ENLWFQS,area with substrate ENLEFQS,area with substrate ENLQFQS,area with substrate ENLRFQS,area with substrate ENLSFQS,area with substrate ENLTFQS,area with substrate ENLGFQS,area with substrate ENLLFQS,area with substrate ENLMFQS,area with substrate ENLVFQS
MGESLFKGPRDYNPISSSICHLTNESDGHTTSLYGIGFGPFIITNKHLFRRNNGTLVVQSLHGVFKVKDTTTLQQHLVDGRKMIIIRMPKDFPPFPQKLKFREPQREERICLVTTNFQTKSMSSMVSDTSCTFPSGDGIFWKHWIQTKDGQCGSPLVSTRDGFIVGIHSASNFTNTNNYFTSVPKNFMELLTNQEAQQWVSGWRLNADSVLWGGHKVFMVKPEEPFQPVKEATQL [D82K],0.0772,0.0695,0.0684,0.0466,0.0551,0.0717,0.0631,0.0661,0.0561,0.0517,,,,,,,,,
MGESLFKGPRDYNPISSSICHLTNESDGHTTSLYGIGFGPFIITNKHLFRRNNGTLVVQSLHGVFKVKDTTTLQQHLVDGRNMIIIRMPKDFPPFPQKLKFREPQREERICLVTTNFQTKSMSSMVSDTSCTFPSGDGIFWKHWIQTKDGQCGSPLVSTRDGFIVGIHSASNFTNTNNYFTSVPKNFMELLTNQEAQQWVSGWRLNADSVLWGGHKVFMVKPEEPFQPVKEATQL [D82N],0.0539,0.0629,0.0657,0.0587,0.0592,,0.0569,0.0588,0.0578,0.0838,0.0644,0.0636,0.0471,0.0771,0.0519,,,,
MGESLFKGPRDYNPISSSICHLTNESDGHTTSLYGIGFGPFIITNKHLFRRNNGTLVVQSLHGVFKVKDTTTLQQHLVDGRDDIIIRMPKDFPPFPQKLKFREPQREERICLVTTNFQTKSMSSMVSDTSCTFPSGDGIFWKHWIQTKDGQCGSPLVSTRDGFIVGIHSASNFTNTNNYFTSVPKNFMELLTNQEAQQWVSGWRLNADSVLWGGHKVFMVKPEEPFQPVKEATQL [M83D],0.0452,0.0267,0.0496,0.0345,0.0639,0.0575,0.0512,0.0478,0.0572,0.0462,0.0481,0.0524,0.0572,,,0.0471,0.0706,0.0489,
MGESLFKGPRDYNPISSSICHLTNESDGHTTSLYGIGFGPFIITNKHLFRRNNGTLVVQSLHGVFKVKDTTTLQQHLVDGRDMEIIRMPKDFPPFPQKLKFREPQREERICLVTTNFQTKSMSSMVSDTSCTFPSGDGIFWKHWIQTKDGQCGSPLVSTRDGFIVGIHSASNFTNTNNYFTSVPKNFMELLTNQEAQQWVSGWRLNADSVLWGGHKVFMVKPEEPFQPVKEATQL [I84E],0.0622,0.0501,0.0472,0.0606,0.054,0.0629,0.0601,0.0134,,0.0542,0.0542,0.0604,,0.0533,0.0526,,0.0595,0.0623,0.0586
MGESLFKGPRDYNPISSSICHLTNESDGHTTSLYGIGFGPFIITNKHLFRRNNGTLVVQSLHGVFKVKDTTTLQQHLVDGRDMGIIRMPKDFPPFPQKLKFREPQREERICLVTTNFQTKSMSSMVSDTSCTFPSGDGIFWKHWIQTKDGQCGSPLVSTRDGFIVGIHSASNFTNTNNYFTSVPKNFMELLTNQEAQQWVSGWRLNADSVLWGGHKVFMVKPEEPFQPVKEATQL [I84G],0.0527,,0.0493,0.0356,0.0454,0.0778,0.0538,0.0235,0.038,,,0.0424,,0.0592,,0.0438,0.062,,
MGESLFKGPRDYNPISSSICHLTNESDGHTTSLYGIGFGPFIITNKHLFRRNNGTLVVQSLHGVFKVKDTTTLQQHLVDGRDMIRIRMPKDFPPFPQKLKFREPQREERICLVTTNFQTKSMSSMVSDTSCTFPSGDGIFWKHWIQTKDGQCGSPLVSTRDGFIVGIHSASNFTNTNNYFTSVPKNFMELLTNQEAQQWVSGWRLNADSVLWGGHKVFMVKPEEPFQPVKEATQL [I85R],0.0473,0.0508,0.0969,,0.0584,0.0733,0.0694,0.0455,,,,,0.0575,0.0338,,,0.0658,,
MGESLFKGPRDYNPISSSICHLTNESDGHTTSLYGIGFGPFIITNKHLFRRNNGTLVVQSLHGVFKVKDTTTLQQHLVDGRDMIIQRMPKDFPPFPQKLKFREPQREERICLVTTNFQTKSMSSMVSDTSCTFPSGDGIFWKHWIQTKDGQCGSPLVSTRDGFIVGIHSASNFTNTNNYFTSVPKNFMELLTNQEAQQWVSGWRLNADSVLWGGHKVFMVKPEEPFQPVKEATQL [I86Q],0.0488,,0.0499,0.0452,0.0421,0.0437,0.0359,0.0418,0.0518,,,0.0326,0.0507,,,0.068,0.0383,0.0257,
MGESLFKGPRDYNPISSSICHLTNESDGHTTSLYGIGFGPFIITNKHLFRRNNGTLVVQSLHGVFKVKDTTTLQQHLVDGRDMIIVRMPKDFPPFPQKLKFREPQREERICLVTTNFQTKSMSSMVSDTSCTFPSGDGIFWKHWIQTKDGQCGSPLVSTRDGFIVGIHSASNFTNTNNYFTSVPKNFMELLTNQEAQQWVSGWRLNADSVLWGGHKVFMVKPEEPFQPVKEATQL [I86V],0.068,,0.0612,0.0904,,0.0649,0.074,0.0668,,0.0964,0.0758,0.0595,0.0687,0.0574,,0.0623,,,0.0837
MGESLFKGPRDYNPISSSICHLTNESDGHTTSLYGIGFGPFIITNKHLFRRNNGTLVVQSLHGVFKVKDTTTLQQHLVDGRDMIIIRMSKDFPPFPQKLKFREPQREERICLVTTNFQTKSMSSMVSDTSCTFPSGDGIFWKHWIQTKDGQCGSPLVSTRDGFIVGIHSASNFTNTNNYFTSVPKNFMELLTNQEAQQWVSGWRLNADSVLWGGHKVFMVKPEEPFQPVKEATQL [P89S],0.053,0.0698,0.0588,,0.065,,0.0586,0.0632,0.0718,0.0579,0.0779,0.0503,0.0782,0.0355,,0.0659,0.0716,,0.0796
